We go through 44 sequences from the supplement of paper PMC11417369.

± gives the standard deviation of the averaged measurements. This is one part of the list.

The subject of this assay is PfAP2-G AP2 domain (GST-tagged). Nature of the assay: gcPBM binding intensity (ln(normalized median fluorescence intensity)); higher = stronger DNA binding. Put shortly: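 Binding intensity is the highest Masliner-normalised natural-log median intensity over replicate spots in either probe orientation. To obtain it, GST-tagged P. falciparum DNA-binding domains made in E. coli were incubated for 1 h on an Agilent 4 × 180k array of primer-extended double-stranded 36-bp intergenic genomic probes plus negative controls. Detection used Alexa488 anti-GST antibody with scanning at 488 nm.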
With “ATTTCATATACAAATTGTACATACAATTTTATGTTT [XGTACX_site3240]”, the “gcPBM binding intensity (ln)” value amounted to 10.9 ± 0.46.

As for “CTTAATATTCTTTAAAGTACACAAAATAAGAATATA [XGTACX_site5489]”, the “gcPBM binding intensity (ln)” value is 11.4 ± 0.8.

For the sequence “TGCAAGGAAAAACACACACACACATAAATGTATATA [CACACA_site751]”, the “gcPBM binding intensity (ln)” value is 10.2 ± 0.33.

Regarding “TCTTGTAAATATATGTGTATATTATATTTTATTATA [TGCATGCA_negctrl_site117]”, the “gcPBM binding intensity (ln)” value came to 9.6 ± 0.028.

For the sequence “TGTTAAAATAAAATCTATTACATTTTTATGGTTATA [XGTACX_negctrl_site525]”, the “gcPBM binding intensity (ln)” value worked out at 9.555 ± 0.049.

As for “TTATATTTTTTAATTACACACAATTTTTATAAATAT [CACACA_site4148]”, the “gcPBM binding intensity (ln)” value came out at 9.985 ± 0.021.

For the sequence “ATCTCATAAAACCGCACACACATAAAATTTGCATTA [CACACA_site3891]”, the “gcPBM binding intensity (ln)” value amounted to 10.05 ± 0.021.

As for “AAAAAACACGCACATACACACAAAAATGTTATAAAT [CACACA_site6188]”, the “gcPBM binding intensity (ln)” value was 10.5 ± 0.51.

For “ATATTGGAGCACAACACACACAAGTATAAATATGGA [CACACA_site6834]”, the “gcPBM binding intensity (ln)” value turned out to be 10.4 ± 0.3.

As for “CTAGTAAAAAATGCAAGTACATACATTATAAGTATA [XGTACX_site3908]”, the “gcPBM binding intensity (ln)” value turned out to be 11.2 ± 0.72.

For “GTATAACACAAGTGAAGTACAGGGGTAAACATTTAT [XGTACX_site3203]”, the “gcPBM binding intensity (ln)” value is 11.5 ± 1.1.

Regarding “TACAGATAAAAGTACACACACACACCGATATATATA [CACACA_site4675]”, the “gcPBM binding intensity (ln)” value was found to be 11.5 ± 0.96.

Regarding “CATAAAAATGTATCAAGTACACATTTATTTATCCAT [XGTACX_site152]”, the “gcPBM binding intensity (ln)” value amounted to 11.3 ± 0.77.

On to “TTTTTTTTTAAAGAAAATAAAAATATGTACTTGACA [CACACA_negctrl_site1113]”, for which the “gcPBM binding intensity (ln)” value was found to be 11.2 ± 1.1.

Regarding “AAACAATTTTTATTTTGTACATAACAATATATTTAT [XGTACX_site1375]”, the “gcPBM binding intensity (ln)” value is 10.6 ± 0.28.

Regarding “TTTTTATATTTTATTAGTACTTATTATATATATAAT [XGTACX_site4900]”, the “gcPBM binding intensity (ln)” value stood at 11.1 ± 0.47.

For “TTAAAATAAAGAGCAGTGCGCATATTTTGTTATTAT [GTGCAC_site9753]”, the “gcPBM binding intensity (ln)” value is 9.96 ± 0.014.

Regarding “ATAAAAAAATATGTAAACATATATATGTATTTATGT [CACACA_negctrl_site1517]”, the “gcPBM binding intensity (ln)” value amounted to 9.76 ± 0.071.

Turning to “GAGTAAAACAAATATACACACCATAAAGTTATAAAA [CACACA_site5008]”, the “gcPBM binding intensity (ln)” value came to 9.89 ± 0.18.

As to “AATATAAAAATGCACACACACAAAAAAAAAAAAAAA [CACACA_site6546]”, the “gcPBM binding intensity (ln)” value came out at 10.1 ± 0.45.

With “ATTTTACATATTTGCACACATATATTTATATACATA [CACACA_site854]”, the “gcPBM binding intensity (ln)” value came out at 10.2 ± 0.16.

In the case of “TTATTTGTTTAATATGCATGCTAAAAGGGTTGATGT [TGCATGCA_site581]”, the “gcPBM binding intensity (ln)” value is 9.96 ± 0.099.

On to “AATTTAAATTCATCACGTACATACGTGAATATACAC [XGTACX_site5220]”, for which the “gcPBM binding intensity (ln)” value is 11.3 ± 0.96.

For “TATATTAATTCGTTTTGTACACACATAATGAATAAT [XGTACX_site4618]”, the “gcPBM binding intensity (ln)” value was 11.1 ± 0.8.

In the case of “ATTTATCTATATATATGTACATATTATTTTTGTGGT [XGTACX_site7390]”, the “gcPBM binding intensity (ln)” value worked out at 11.3 ± 0.73.

For the sequence “GATATACAATTTAAGTGTACTATAATAAAATATATA [XGTACX_site3013]”, the “gcPBM binding intensity (ln)” value was 11.2 ± 0.84.

“ATAAAAAAATATAAATGTACATATATATATATATAT [XGTACX_site5620]”: the “gcPBM binding intensity (ln)” value was 11 ± 0.66.

For “TCTAACATATCTTTAATACACACTTAAAAAAGTACT [CACACA_site652]”, the “gcPBM binding intensity (ln)” value was 10.9 ± 0.45.

With “TTTAAAATATTGTATTGTACGCAATAAAAAATACCA [XGTACX_site182]”, the “gcPBM binding intensity (ln)” value turned out to be 11.5 ± 1.2.

On to “ATTAAATAAAATCATGCACACAATATATATTTTAAG [CACACA_site2495]”, for which the “gcPBM binding intensity (ln)” value came out at 9.99 ± 0.11.

Regarding ATAAGCATCTTTTGTGTGCACATAACAAAAAAAAAA, the “gcPBM binding intensity (ln)” value is 10.6 ± 0.53.

As for “TAAGGTAGTTCTGTATCACACACATATATATATATA [CACACA_site8693]”, the “gcPBM binding intensity (ln)” value was determined as 10.3 ± 0.46.

Consider “AAATACATATATACATGTACATAAATATATATATAT [XGTACX_site5367]”, for which the “gcPBM binding intensity (ln)” value stood at 11.2 ± 0.66.

Take “ATAGATATACATATCACACATATATATATATATATA [CACACA_site4985]”: the “gcPBM binding intensity (ln)” value was determined as 10.2 ± 0.58.

In the case of “AATATATATGGACATGCATGGACATAATAATCTATT [TGCATGCA_site838]”, the “gcPBM binding intensity (ln)” value was 10.9 ± 0.53.

Regarding “GAAAATAATGTTACATGTACGAATATGTAACTATTG [XGTACX_site6833]”, the “gcPBM binding intensity (ln)” value stood at 10.8 ± 0.46.

Consider “TGAGAAAGCGCATATTGTACTATATATTTTAACCAC [XGTACX_site4098]”, for which the “gcPBM binding intensity (ln)” value worked out at 11 ± 0.58.

On to “AATCCATTCTATTTTTTACACACGTATGTAAATATT [CACACA_site8860]”, for which the “gcPBM binding intensity (ln)” value was 10.2 ± 0.11.

Turning to “GAAACGTTTTTGAGTAGTACACACACAATAAGGATG [XGTACX_site6809]”, the “gcPBM binding intensity (ln)” value was found to be 11.7 ± 1.1.

As to “ATATAAATATAAACATGTACATATATATATATATAT [XGTACX_site2824]”, the “gcPBM binding intensity (ln)” value stood at 11.1 ± 0.69.

Take “ATATATTTATACATTTGTACATATACATATTTCTGA [XGTACX_site3982]”: the “gcPBM binding intensity (ln)” value was 10.9 ± 0.27.

Take ATTTTTTTTGTAAAAGTGCATATATATATATATATA: the “gcPBM binding intensity (ln)” value worked out at 10.2 ± 0.32.

Take “AAAATTGTGCTTTCACGGACACAAGATCGAAATAGA [XGTACX_site4068]”: the “gcPBM binding intensity (ln)” value turned out to be 11 ± 0.73.

“TTTGTAATAACATATGCATGTTCAAAAAATAAAATA [TGCATGCA_site817]”: the “gcPBM binding intensity (ln)” value turned out to be 9.9 ± 0.16.
